About 620 (0.23%) of roughly 270,000 compounds were called active. The shares of active, inactive and inconclusive entries below differ from those in the screen. Calls come from the whole dose curve; as a rule, active = well fitted inhibition curve with a large enough effect in the polarisation, with a control signal flat (not every such curve was filed as active); inconclusive = small, poorly fitted or top-dose-only effect, or effect the other way, or a change in a side signal; inactive = no such curve, though single readings can be large or run the other way; the % refers to the polarisation. Potencies beside an inconclusive call are fits to weak or partial responses and may not hold up. A note “side channel” means that the fit belongs to a control or component signal, not to the main read-out.
What follows are molecules tested against Menin (Homo sapiens) (UniProt O00255) (assay: qHTS Assay for Inhibitors Targeting the Menin-MLL Interaction in MLL Related Leukemias: Competition With Texas Red Labeled MLL-derived Mutant Peptide). Conditions: fluorescence polarization; FP activity change, negative = inhibition: at 61.6 µM (top of the series).
Sequence of UniProt O00255 (O00255 whole entry, looked up): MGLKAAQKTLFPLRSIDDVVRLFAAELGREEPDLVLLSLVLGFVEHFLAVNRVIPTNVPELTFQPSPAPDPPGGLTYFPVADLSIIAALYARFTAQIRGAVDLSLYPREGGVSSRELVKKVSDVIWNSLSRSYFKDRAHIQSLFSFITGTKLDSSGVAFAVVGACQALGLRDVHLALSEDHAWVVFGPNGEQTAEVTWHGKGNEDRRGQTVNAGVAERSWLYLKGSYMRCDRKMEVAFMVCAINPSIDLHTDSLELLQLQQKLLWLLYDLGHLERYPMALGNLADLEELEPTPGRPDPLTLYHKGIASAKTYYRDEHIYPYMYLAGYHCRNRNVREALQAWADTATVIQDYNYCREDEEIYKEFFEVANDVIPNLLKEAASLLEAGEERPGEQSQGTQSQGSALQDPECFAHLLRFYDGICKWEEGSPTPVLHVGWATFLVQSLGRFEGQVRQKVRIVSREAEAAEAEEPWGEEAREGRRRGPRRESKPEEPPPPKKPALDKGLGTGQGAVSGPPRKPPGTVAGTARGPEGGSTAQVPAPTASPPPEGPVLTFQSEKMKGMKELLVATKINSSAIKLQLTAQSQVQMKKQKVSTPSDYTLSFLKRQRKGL
In the case of COc1ccc(Cl)cc1NC(=S)NCCSc1ccc(C)cc1, the Potency is reported as inconclusive: 10 µM [quencher, side channel, partial curve].
For CC1CCC2C(=O)OC(CN3C(=O)c4ccccc4C3=O)CN2C1c1ccc(Br)cc1 (stereo unspecified), the FP activity change, negative = inhibition was inactive: 5.72% [at 11.7 µM].
Cc1ccc(C(C)C)c(OCC(=O)Nc2ccc3c(c2)nc(CN2CCCC2)n3C)c1 was tested, and the Potency was inconclusive: 3.55 µM [fluorescent, side channel, full curve, poor fit].
With CCC1CCC(C(=O)NC(C(=O)Nc2ccc3c(c2)OCCO3)C(C)C)CC1 (stereo unspecified) the Potency was inconclusive: 31.6 µM [fluorescent, side channel, single point].
In the case of COc1ccc(-c2cc(C(=O)OCC(=O)Nc3cc(C)on3)c3ccccc3n2)cc1OC, the Potency is reported as inconclusive: 4.47 µM [quencher, side channel, full curve].
With Cc1cccc(-c2nc(Nc3cccc(O)c3)c3ccccc3n2)c1 the Potency was inconclusive: 8.91 µM [quencher, side channel, full curve, poor fit].
For CC(=O)c1ccc(N2CCN(CC(O)COC(c3ccccc3)c3ccccc3)CC2)cc1 (stereo unspecified), the Potency was inconclusive: 17.8 µM [inhibitor, partial curve].
O=C(c1ccc(S(=O)(=O)N2CCCCCC2)cc1)N1CCN(c2ccccc2)CC1 was tested, and the Potency was inconclusive: 39.8 µM [inhibitor, single point].
With CCOc1ccc(N(CC(=O)Nc2ccc(F)c(F)c2)S(=O)(=O)c2c(C)noc2C)cc1 the Potency was inconclusive: 10 µM [quencher, side channel, partial curve].
With NC(N)=Nc1nc(-c2ccccc2)c2cc(F)ccc2n1 the Potency was inconclusive: 14.1 µM [fluorescent, side channel, partial curve].
CCc1ccc(OCC(=O)Nc2ccc(-c3nc4ccccc4o3)c(O)c2)cc1 was tested, and the Potency was inconclusive: 8.91 µM [inhibitor, single point].
N#Cc1c(C(F)(F)F)cc(-c2ccco2)nc1SCc1ccncc1 was tested, and the Potency was “inactive”.
O=C(CN1CCC(C(O)(c2ccccc2)c2ccccc2)CC1)Nc1cc(Cl)ccc1Cl was tested, and the Potency was inconclusive: 0.794 µM [inhibitor, full curve].
CC12C=C(/C=C/c3ccc(Br)cc3)C(C)(C1)[C@H](c1ccc(Br)cc1)CC2=O (stereo partly specified) was tested, and the Potency was “inactive”.
With O=C(O)c1ccc2c(c1)C(c1ccccc1)OC2=O (stereo unspecified) the Potency was inconclusive: 7.08 µM [fluorescent, side channel, single point].
COc1cc(N2CCCC2)c(OC)cc1/C=C1/NC(=S)NC1=O was tested, and the Potency was “inactive”.
Potency is the fitted concentration of half-maximal effect; tags give direction and shape of the fitted curve or compound fluorescence and quenching.
Throughout, for FP activity change, negative = inhibition: % of control where 0% means no effect.
